Measured values as given in PubChem BioAssay AID624296 (National Center for Advancing Translational Sciences (NCATS), 2012).
The whole screen tested about 350,000 compounds, of which about 9,900 (2.8%) were called active. Inconclusive means that the source gave no clear call. Such entries were picked first, then a sample of the others. Calls follow the shape of the dose curve; as a rule, active = well fitted activation curve with a large enough effect; inconclusive = small, poorly fitted or top-dose-only effect; inactive = no such curve, though single readings can be large or run the other way. No potency is given beside an inconclusive call; the fits are too rough.
Potency is read from the fitted curve at half-maximal effect; tags tell the direction and shape of the fitted curve.

Experiment: A quantitative high throughput screen for small molecules that induce DNA re-replication in MCF 10a normal breast cells. Also: nearly all actives have a fitted effect of over 50% in size. As to activity, positive = re-replication: % of control where 0% means no effect.
Conditions: MCF 10A DNA re-replication, Hoechst nuclear intensity, 48 h; activity, positive = re-replication: at 46.1 µM (top of the series)
With Cc1noc(C)c1CSc1nc2ccccc2nc1NS(=O)(=O)c1ccc(Cl)cc1 the Potency was active: 2.59 µM.
With CCN(CC(=O)NCc1ccc(Cl)cc1)C(=O)c1cnc(Cl)c(Cl)c1 the Potency was inconclusive [activator, partial curve, poor fit].
With CCCCn1c(/N=C/c2c[nH]c3ccccc23)nc2ccccc21 the Potency was active: 11.6 µM.
In the case of Cc1ccc(C)c(NC(=O)CSc2nc3c(c(=O)n2C)SC(C)C3)c1 (centres undefined), the Potency is reported as “inactive”.
For COC(=O)c1ccccc1NC(=S)N1CCN(c2ccccn2)CC1, the Potency was “inactive”.
For O=c1c2ccccc2nnn1CSc1nc2ccccc2c(=O)n1Cc1ccco1, the Potency was inconclusive [activator, single point].
With Cc1ccoc1C(=O)Nc1cccc2ccccc12 the Potency was “inactive”.
With O=C(Nc1cccc(Cl)c1)Nc1nnc(CC2=CCCCC2)s1 the Potency was inconclusive [activator, partial curve].
In the case of CC(C)Cc1cc(C(=O)N2N=C(C(F)F)CC2(O)C(F)F)c2ccccc2n1 (centres undefined), the Potency is reported as inconclusive [activator, single point].
In the case of CN(C)c1ccc(/C=N/NC(=O)CCC(=O)NCc2ccccc2)cc1, the Potency is reported as “inactive”.
For CC(C)(C)c1csc(NNC(=O)c2ccc(Br)cc2)n1, the Potency was inconclusive [activator, single point].
With COc1ccc(N(C(=O)c2ccc(C)cc2)S(=O)(=O)c2cccs2)cc1 the Potency was inconclusive [activator, single point].
For CC[C@]12c3[nH]c4cc(CCC(=O)N(C)C)ccc4c3CCN1C(=O)[C@@H](CC(=O)NCCCOC)C[C@@H]2C(=O)N1CCN(C(=O)c2ccco2)CC1, the Potency was “inactive”.
In the case of COc1cccc(/C=C/c2nc(S(=O)(=O)c3ccccc3)c(N(C)C)o2)c1, the Potency is reported as active: 11.6 µM.
In the case of CCOc1ccc(Br)cc1/C(C)=N\NC1=NCCN1, the Potency is reported as inconclusive [activator, single point].
With CCc1ccc(Nc2nnc(SCC(=O)NC(=O)CN3CCCC3=O)s2)cc1 the Potency was “inactive”.
In the case of COCCNC(=O)Cn1cc(S(=O)(=O)N2CCN(c3ccccc3F)CC2)c2ccccc2c1=O, the Potency is reported as “inactive”.
In the case of CC1c2cc3c(cc2CCN1C(=O)c1cccc(F)c1)OCCCO3 (centres undefined), the Potency is reported as inconclusive [activator, single point].
With Cc1ccc(NC(=O)CNCc2cccs2)c(Br)c1 the Potency was inconclusive [activator, single point].
With O=C(CNC(=O)OCc1ccccc1)Oc1cc2oc(=O)cc(-c3ccccc3)c2cc1Cl the Potency was inconclusive [activator, single point].
For O=c1oc2cc(O)ccc2cc1-c1ccccc1, the Potency was inconclusive [activator, single point].
In the case of COc1ccc2c3c(c(=O)oc2c1OCC(=O)C(C)(C)C)CCCC3, the Potency is reported as inconclusive [activator, partial curve, poor fit].
With CCCOc1ccc(C2NC(=S)NC(c3ccccc3)=C2C(=O)Nc2ccc(C)cc2)cc1OC (centres undefined) the Potency was inconclusive [activator, single point].
For COc1cccc(NC(=O)C2CCOC2=O)c1 (centres undefined), the Potency was “inactive”.
With COc1ccc(/C=N/NC(=O)CNC(=O)COc2ccccc2)cc1 the Potency was “inactive”.
For CCN1C(=O)[C@@H]2Cc3c([nH]c4ccccc34)C(c3cc(OC)c(OC)c(OC)c3)N2C1=S (some centres undefined), the Potency was inconclusive [activator, single point].
For CCOC(=O)[C@@H]1[C@H]2COc3cc(OC)ccc3[C@@H]2N2C(=O)N(c3ccc(OC)cc3)C(=O)[C@]12C, the Potency was inconclusive [activator, full curve, poor fit].
In the case of COc1ccc(Cl)cc1NC(=O)C1CCCN(S(=O)(=O)c2cccc3nonc23)C1 (centres undefined), the Potency is reported as inconclusive [activator, partial curve, poor fit].
With CC(=O)c1c(C)n(-c2ccc(Br)cc2)c2ccc(O)cc12 the Potency was inconclusive [activator, full curve, poor fit].
In the case of COc1ccc(-c2cc(-c3ccccc3O)[nH]n2)cc1, the Potency is reported as inconclusive [activator, single point].
For O=C(CSc1ncnc2ccccc12)NCC(=O)c1ccccc1, the Potency was inconclusive [activator, single point].
With O=C(Cn1nnc(-c2ccc(Cl)cc2)n1)NCC1CCCCC1 the Potency was inconclusive [activator, single point].
For CCC(=O)Nc1nc2ccc(NC(=O)c3cc(OC)c(OC)c(OC)c3)cc2s1, the Potency was inconclusive [activator, partial curve, poor fit].
For Fc1ccc(Nc2nc(N3CCOCC3)nc(N3CCOCC3)n2)cc1Cl, the Potency was “inactive”.
In the case of CC(C)CC(=O)NC(=S)NNC(=O)c1cccc([N+](=O)[O-])c1, the Potency is reported as inconclusive [activator, single point].
With COc1cccc(/C=N/Nc2ncnc3scc(-c4ccccc4)c23)c1O the Potency was active: 13 µM.
With Cc1ccccc1CSc1nnnn1-c1ccc(C(N)=O)cc1 the Potency was inconclusive [activator, partial curve, poor fit].
For Cc1ccc(NS(=O)(=O)c2ccc(C(=O)N3CCCN(C)CC3)cc2)cc1, the Potency was inconclusive [activator, partial curve, poor fit].
In the case of CCn1nc(C)cc1C(=O)N1CCCC(C(=O)c2ccccc2SC)C1 (centres undefined), the Potency is reported as “inactive”.
For CCCc1ccc(NS(=O)(=O)c2c(C)oc(C)c2C(=O)OC)cc1, the Potency was inconclusive [activator, partial curve, poor fit].
With COc1ccc(/C=N/NS(C)(=O)=O)c(OC)c1 the Potency was inconclusive [activator, single point].
For COC(=O)c1cc(Nc2cc(C)c3ccc(O)cc3n2)cc(C(=O)OC)c1, the Potency was active: 14.6 µM.
In the case of CC(=O)c1cc2c(cc1NC(=O)Cn1nc(-c3ccc(C)cc3)ccc1=O)OCO2, the Potency is reported as inconclusive [activator, single point].
With CCn1cc(C(=O)N2CCc3ccccc3C2)c(=O)c2cc(S(=O)(=O)N3CCCCC3)ccc21 the activity, positive = re-replication was inconclusive: 99.8% [activator].
